Measured values: PMC3424240
No constants are given. Whether binding was seen depends on the method and setting. In cells and extracts the contact can be indirect. Some entries that bind do so weakly or less than the wild type. For some of these results: Tags and fused reporters may be left off the sequences shown.

Amino acid sequences for entries named in this document (tags omitted).
UniProt Q9UPS6: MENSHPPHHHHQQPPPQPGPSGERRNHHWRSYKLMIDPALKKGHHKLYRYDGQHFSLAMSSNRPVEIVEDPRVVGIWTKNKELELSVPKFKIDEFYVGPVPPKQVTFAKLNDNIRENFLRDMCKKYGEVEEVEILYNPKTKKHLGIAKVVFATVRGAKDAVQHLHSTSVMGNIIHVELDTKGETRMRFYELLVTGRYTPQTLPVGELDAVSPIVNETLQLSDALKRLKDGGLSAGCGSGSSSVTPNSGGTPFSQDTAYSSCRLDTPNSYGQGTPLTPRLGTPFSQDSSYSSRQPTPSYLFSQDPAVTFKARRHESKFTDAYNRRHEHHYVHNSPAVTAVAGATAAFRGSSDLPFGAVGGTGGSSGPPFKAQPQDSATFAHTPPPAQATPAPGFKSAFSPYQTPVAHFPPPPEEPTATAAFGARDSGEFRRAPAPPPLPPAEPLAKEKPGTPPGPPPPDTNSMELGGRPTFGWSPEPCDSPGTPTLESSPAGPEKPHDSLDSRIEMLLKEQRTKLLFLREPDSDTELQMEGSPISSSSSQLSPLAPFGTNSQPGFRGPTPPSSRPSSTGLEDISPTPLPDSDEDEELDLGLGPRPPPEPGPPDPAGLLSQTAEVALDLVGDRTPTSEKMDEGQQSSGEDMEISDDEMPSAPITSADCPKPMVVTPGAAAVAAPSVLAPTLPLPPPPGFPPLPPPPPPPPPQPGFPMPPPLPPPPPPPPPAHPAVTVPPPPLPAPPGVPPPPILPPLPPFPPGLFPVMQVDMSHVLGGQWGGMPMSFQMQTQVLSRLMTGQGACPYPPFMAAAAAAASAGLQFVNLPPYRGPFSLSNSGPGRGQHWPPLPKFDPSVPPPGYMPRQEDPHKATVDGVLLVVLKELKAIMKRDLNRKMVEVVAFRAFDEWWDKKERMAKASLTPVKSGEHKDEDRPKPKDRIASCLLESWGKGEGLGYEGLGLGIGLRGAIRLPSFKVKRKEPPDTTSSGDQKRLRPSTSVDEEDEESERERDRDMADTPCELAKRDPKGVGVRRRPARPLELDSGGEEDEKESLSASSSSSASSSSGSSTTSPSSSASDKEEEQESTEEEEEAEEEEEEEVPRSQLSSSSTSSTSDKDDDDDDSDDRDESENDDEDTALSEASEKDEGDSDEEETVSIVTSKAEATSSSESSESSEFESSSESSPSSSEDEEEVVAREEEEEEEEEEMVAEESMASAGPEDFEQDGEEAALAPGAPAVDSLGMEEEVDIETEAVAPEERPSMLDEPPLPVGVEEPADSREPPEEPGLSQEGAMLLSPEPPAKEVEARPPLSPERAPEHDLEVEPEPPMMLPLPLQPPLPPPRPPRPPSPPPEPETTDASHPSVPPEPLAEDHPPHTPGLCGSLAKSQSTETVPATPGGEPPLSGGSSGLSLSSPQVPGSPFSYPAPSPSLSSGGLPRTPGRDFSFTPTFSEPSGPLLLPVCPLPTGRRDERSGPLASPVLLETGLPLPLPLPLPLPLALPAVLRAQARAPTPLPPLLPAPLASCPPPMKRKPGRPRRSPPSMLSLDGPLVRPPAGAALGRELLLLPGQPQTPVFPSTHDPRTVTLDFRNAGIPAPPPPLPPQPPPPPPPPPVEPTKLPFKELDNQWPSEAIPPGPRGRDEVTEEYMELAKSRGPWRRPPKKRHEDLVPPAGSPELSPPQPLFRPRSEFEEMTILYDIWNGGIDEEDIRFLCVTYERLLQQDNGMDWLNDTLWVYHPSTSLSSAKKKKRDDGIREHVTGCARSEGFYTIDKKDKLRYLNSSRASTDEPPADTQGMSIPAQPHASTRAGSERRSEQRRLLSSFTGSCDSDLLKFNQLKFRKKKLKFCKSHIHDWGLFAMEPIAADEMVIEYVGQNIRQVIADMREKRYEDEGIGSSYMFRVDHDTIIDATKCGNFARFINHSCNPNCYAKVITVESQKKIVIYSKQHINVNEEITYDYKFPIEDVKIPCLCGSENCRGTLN

How the values were obtained:
[1] = molecular target: T1, FLAG-Rbm15 (human) (UniProt Q96T37); assay: co-IP; FLAG immunoprecipitation from nuclear extracts of transiently transfected HEK293 cells, Western blotting for endogenous partners
T1 sequence: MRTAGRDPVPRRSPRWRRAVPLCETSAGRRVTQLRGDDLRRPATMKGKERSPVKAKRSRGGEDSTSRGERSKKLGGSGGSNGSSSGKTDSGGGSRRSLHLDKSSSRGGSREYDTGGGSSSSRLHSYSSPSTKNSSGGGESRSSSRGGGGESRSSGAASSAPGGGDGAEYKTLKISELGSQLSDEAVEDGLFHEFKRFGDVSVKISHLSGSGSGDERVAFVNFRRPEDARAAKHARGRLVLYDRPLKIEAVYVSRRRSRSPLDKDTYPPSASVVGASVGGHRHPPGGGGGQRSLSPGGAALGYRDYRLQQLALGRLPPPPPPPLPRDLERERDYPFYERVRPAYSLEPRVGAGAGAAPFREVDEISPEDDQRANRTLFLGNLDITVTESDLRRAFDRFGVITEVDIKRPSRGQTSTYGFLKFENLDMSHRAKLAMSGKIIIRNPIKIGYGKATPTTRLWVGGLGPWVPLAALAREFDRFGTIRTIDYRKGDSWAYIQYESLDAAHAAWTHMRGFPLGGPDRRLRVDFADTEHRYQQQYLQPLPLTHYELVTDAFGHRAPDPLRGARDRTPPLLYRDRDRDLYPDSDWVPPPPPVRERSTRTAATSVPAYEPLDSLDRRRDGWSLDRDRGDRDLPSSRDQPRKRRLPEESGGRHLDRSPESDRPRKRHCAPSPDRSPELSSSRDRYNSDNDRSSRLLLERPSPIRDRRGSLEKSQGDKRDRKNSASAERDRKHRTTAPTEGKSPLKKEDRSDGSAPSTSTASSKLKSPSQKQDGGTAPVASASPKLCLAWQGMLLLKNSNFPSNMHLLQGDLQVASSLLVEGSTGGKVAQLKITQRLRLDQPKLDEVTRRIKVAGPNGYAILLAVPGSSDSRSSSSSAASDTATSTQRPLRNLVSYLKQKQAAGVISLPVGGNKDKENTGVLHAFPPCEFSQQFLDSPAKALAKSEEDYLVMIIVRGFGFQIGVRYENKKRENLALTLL

[2] = molecular target: T2, endogenous Rbm15 (human (endogenous in HEK293)) (UniProt Q96T37); assay: co-IP; immunoprecipitation with antisera against Setd1b or Rbm15 from nuclear extracts of HEK293 cells (endogenous proteins), Western blotting
T2 sequence: T1 sequence

[3] = molecular target: T1, FLAG-Rbm15 (human); assay: co-IP; FLAG immunoprecipitation from whole cell extracts of T-REx HEK293 lines induced with 1 µg/ml doxycycline for three days, in the presence or absence of RNase A (50 ug/ml, 15 min, 37°C)
[4] = molecular target: T1, FLAG-Rbm15 (human); assay: co-IP; FLAG immunoprecipitation (FLAG-IgG agarose) from nuclear extracts of inducible T-REx HEK293 stable lines, Western blotting for endogenous partners
[5] = molecular target: T3, FLAG-Mkl1 (human) (UniProt Q969V6); assay: as above
T3 sequence: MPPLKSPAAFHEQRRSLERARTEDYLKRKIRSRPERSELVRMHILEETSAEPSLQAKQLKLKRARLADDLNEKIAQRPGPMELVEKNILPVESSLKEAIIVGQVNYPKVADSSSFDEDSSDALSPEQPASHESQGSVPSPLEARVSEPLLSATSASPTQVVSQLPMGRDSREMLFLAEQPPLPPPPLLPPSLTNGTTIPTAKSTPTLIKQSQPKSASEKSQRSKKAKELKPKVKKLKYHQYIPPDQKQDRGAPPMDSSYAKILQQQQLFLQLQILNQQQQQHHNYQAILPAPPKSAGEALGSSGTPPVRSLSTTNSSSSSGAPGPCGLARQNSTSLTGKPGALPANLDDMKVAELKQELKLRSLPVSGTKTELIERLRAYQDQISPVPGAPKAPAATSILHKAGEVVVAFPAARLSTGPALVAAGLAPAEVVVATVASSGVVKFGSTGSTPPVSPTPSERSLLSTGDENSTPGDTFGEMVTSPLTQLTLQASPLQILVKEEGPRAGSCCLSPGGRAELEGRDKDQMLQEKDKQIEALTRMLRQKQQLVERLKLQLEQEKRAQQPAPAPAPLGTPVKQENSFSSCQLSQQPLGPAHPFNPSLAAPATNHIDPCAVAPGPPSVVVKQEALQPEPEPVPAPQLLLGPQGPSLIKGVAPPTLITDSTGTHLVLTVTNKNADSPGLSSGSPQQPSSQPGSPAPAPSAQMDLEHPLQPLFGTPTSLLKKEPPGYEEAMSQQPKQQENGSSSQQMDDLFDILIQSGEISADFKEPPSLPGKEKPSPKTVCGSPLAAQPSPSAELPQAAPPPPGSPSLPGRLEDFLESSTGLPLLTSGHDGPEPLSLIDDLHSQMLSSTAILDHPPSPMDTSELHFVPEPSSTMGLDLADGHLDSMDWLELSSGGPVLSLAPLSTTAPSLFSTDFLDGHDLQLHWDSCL

[6] = molecular target: T4, FLAG-Rbm15 508 to 929 aa fragment (human) (UniProt Q96T37); assay: co-IP; FLAG immunoprecipitation from whole cell extracts of transiently transfected HEK293 cells, Western blotting for endogenous partners
T4 sequence: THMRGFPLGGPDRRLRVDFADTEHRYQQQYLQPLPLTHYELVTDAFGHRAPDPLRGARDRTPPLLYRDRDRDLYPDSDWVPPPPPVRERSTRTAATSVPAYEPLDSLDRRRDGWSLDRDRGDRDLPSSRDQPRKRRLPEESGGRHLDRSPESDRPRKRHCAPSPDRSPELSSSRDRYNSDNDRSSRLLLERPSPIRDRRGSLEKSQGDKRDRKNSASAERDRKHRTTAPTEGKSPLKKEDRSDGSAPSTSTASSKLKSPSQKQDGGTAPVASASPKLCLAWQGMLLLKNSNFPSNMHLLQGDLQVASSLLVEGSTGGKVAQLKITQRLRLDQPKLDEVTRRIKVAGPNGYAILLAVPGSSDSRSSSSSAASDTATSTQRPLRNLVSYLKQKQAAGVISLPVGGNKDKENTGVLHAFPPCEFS

[7] = molecular target: T5, FLAG-Rbm15 fragment aa 782 to 977 (human) (UniProt Q96T37); assay: as above
T5 sequence: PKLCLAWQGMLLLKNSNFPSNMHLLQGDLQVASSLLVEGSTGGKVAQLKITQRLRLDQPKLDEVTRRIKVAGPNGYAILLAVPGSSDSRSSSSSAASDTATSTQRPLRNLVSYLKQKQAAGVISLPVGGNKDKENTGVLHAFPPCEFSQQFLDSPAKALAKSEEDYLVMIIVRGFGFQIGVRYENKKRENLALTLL

Question: What does the source list for “endogenous Setd1b (from UniProt Q9UPS6 1-1966)”?
Answer: binding [1]: binds; binding [2]: binds; binding [3]: binds; binding [4]: binds; binding [5]: no binding; binding [6]: no binding; binding [7]: binds
